A word on the % Inhibition: it is the drop in the measured response relative to a control, in per cent.

About 540 (0.36%) of roughly 150,000 compounds showed an effect of 50% or more. The list shows a part of the results.

This test has as its system Plasmodium falciparum. Briefly: Primary screen in NF54 nanoGlo assay, in single point, at 2uM, 72h; a lower Z score goes with more inhibition. Type of test: functional, Erythrocyte. The settings on record: timepoint 72 hour.
`O=C(c1ccc(S(=O)(=O)NCc2cccnc2)cc1)N1CC[C@H](O)C1`: the “% Inhibition” value is given as -18% and the Z score came to 2.26.

On to `CC(=O)N(C)[C@H](c1ccc2c(c1)OCO2)c1nnnn1-c1ccc(C)cc1`, for which the “% Inhibition” value is 31% and the Z score is recorded as -3.54.

With `CC(C)C(NC1CCCn2ccnc21)C(=O)N(C)Cc1nnc2n1CCC2` (centres undefined), the “% Inhibition” value is given as -18% and the Z score is listed as 2.72.

In the case of `C[C@@H](C(=O)N(C)CCc1nccs1)n1nnnc1C(C)(C)C`, the “% Inhibition” value is -6% and the Z score was found to be 0.63.

As for `Cc1nc(CNC(=O)N(C)Cc2noc(CC(C)C)n2)n[nH]1`, the “% Inhibition” value is -9% and the Z score was determined as 1.27.

`CC(C)c1nc2ccc(C(=O)NCCC3=CCCCC3)cc2o1`: the “% Inhibition” value is listed as -15% and the Z score was 1.39.

Regarding `CCC(=O)N1CCCCCCN(C)C(=O)[C@@H]2CCC[C@@H]21`, the “% Inhibition” value is reported as -2% and the Z score is given as 0.34.

For `Cc1cc(C2OCCO2)c(C)cc1CN[C@@]1(C)CCOC1`, the “% Inhibition” value came out at 10% and the Z score is -2.01.

In the case of `O=C(NCCc1cn2c(n1)CCCC2)c1cccnc1`, the “% Inhibition” value is listed as -1% and the Z score is 0.23.

On to `O=C1[C@@H](OC2CCN(S(=O)(=O)c3cc(Cl)ccc3Cl)CC2)CCN1CC1CC1`, for which the “% Inhibition” value was -19% and the Z score stood at 3.32.

As for `C[C@H](NCc1ncc(Br)cc1Cl)c1ncn(C)n1`, the “% Inhibition” value is listed as 4% and the Z score is -0.62.

As for `CCc1nnc(CN(C)C(=O)c2cc3ccc(OC)cc3n2C)o1`, the “% Inhibition” value is on record as -9% and the Z score came to 1.29.

With `O=c1c(CNC2CCCC2)cc2ccc(Cl)cc2n1CCOc1ccccc1`, the “% Inhibition” value is given as 2% and the Z score is reported as -0.3.

As to `CC1CC(C(=O)O)CN(C(=O)c2noc(-c3cccc(F)c3)n2)C1` (centres undefined), the “% Inhibition” value is given as -7% and the Z score is given as 1.09.

`CC(C)C(=O)N1CCN(c2c(F)c(F)c(F)c(F)c2F)CC1`: the “% Inhibition” value is reported as -2% and the Z score worked out at 0.24.

For `O=C(NC1CC1)C1(F)CCN(Cc2ccncc2)CC1`, the “% Inhibition” value was -10% and the Z score amounted to 1.25.

In the case of `Cc1ccoc1CN(C)S(=O)(=O)C1(C)CC1`, the “% Inhibition” value was -3% and the Z score is 0.54.

On to `O=C(C(=O)N1CCN(Cc2ccccc2)CC1)c1ccc[nH]1`, for which the “% Inhibition” value is recorded as -13% and the Z score worked out at 1.25.

Regarding `CCN(Cc1ccoc1)[C@@H](C)c1nc2ccccc2c(=O)[nH]1`, the “% Inhibition” value is -15% and the Z score amounted to 1.52.

On to `CCCN1CCN(Cc2cnn(CC)c2C)[C@H]2CS(=O)(=O)C[C@H]21`, for which the “% Inhibition” value is given as -16% and the Z score was 2.32.

Take `O=C(CN1C(=O)c2ccccc2C1=O)NOCc1ccccc1`: the “% Inhibition” value is recorded as -12% and the Z score was 1.56.

For the compound `CCOC[C@@H](O)CN(Cc1c(-c2ccccc2)nn(C)c1Oc1ccccc1)C1CC1`, the “% Inhibition” value is 2% and the Z score is given as -0.17.

With `O=C(Nc1cccc(-c2ccc(N3CCCCC3)nn2)c1)c1ccco1`, the “% Inhibition” value is listed as -6% and the Z score is 0.82.

For `O=C1CN(C(=O)[C@H]2CC[C@H](Cn3c(=O)[nH]c4ccccc4c3=O)CC2)CCN1`, the “% Inhibition” value is on record as -3% and the Z score is reported as 0.58.

Regarding `Cc1ncc(-c2cc(-c3ccc4c(c3)OCO4)nc(N)c2C#N)n1C`, the “% Inhibition” value was -20% and the Z score stood at 2.02.

In the case of `CC1CCCN(C(C(=O)NC2CCCC2)c2ccc(Cl)cc2)C1` (centres undefined), the “% Inhibition” value came out at 6% and the Z score is on record as -0.9.

Take `Cn1cccc(C(=O)N2CCC(Oc3nncs3)CC2)c1=O`: the “% Inhibition” value is 22% and the Z score is -2.82.

On to `COc1cccc(-c2noc(N3CC4CCC3C4)n2)c1` (centres undefined), for which the “% Inhibition” value is on record as -5% and the Z score came to 0.73.

As for `CCn1cc(Br)cc1C(=O)[C@H](C#N)C(=O)NC`, the “% Inhibition” value is -3% and the Z score turned out to be 0.32.

On to `CN(Cc1nnc2n1CCC2)C(=O)[C@@H]1CC=CCC1`, for which the “% Inhibition” value turned out to be 1% and the Z score is recorded as -0.18.

As to `Cc1cc(CNC(=O)c2[nH]nc(C)c2Cl)on1`, the “% Inhibition” value is on record as 3% and the Z score was -0.31.

For `CCn1ccnc1C(=O)Nc1ccc(Oc2ccnc3ccccc23)cc1`, the “% Inhibition” value was 4% and the Z score is -0.52.

Turning to `COC(=O)[C@H](Cc1ccc(OC)cc1)NC(=O)[C@H]1CN(C(=O)c2cccnc2)CCN1C(=O)NC(C)C`, the “% Inhibition” value is -2% and the Z score was 0.27.

On to `O=C(NCC(F)(F)F)N1CCC12CCC2`, for which the “% Inhibition” value is recorded as 7% and the Z score is given as -1.1.

For the compound `CCNC(=O)c1cc(N(C)S(C)(=O)=O)ccc1Cl`, the “% Inhibition” value is -7% and the Z score turned out to be 1.2.

For the compound `CN1CCN([C@H]2CN(Cc3ccccc3OC(F)(F)F)C[C@@H]2O)CC1`, the “% Inhibition” value turned out to be 0% and the Z score is on record as 0.07.

On to `CNC(=O)c1nc(-c2ccccc2)n2c1CCN(C(=O)c1ccccc1)CC2`, for which the “% Inhibition” value came out at 0% and the Z score worked out at 0.01.

As for `N#Cc1ccc(C(=O)N[C@H]2CCCc3c2cnn3-c2ccccn2)cc1`, the “% Inhibition” value was 38% and the Z score was -5.52.

Consider `Cc1cnc(C(=O)NC2CCCCCCC2)cn1`, for which the “% Inhibition” value was 18% and the Z score is recorded as -2.33.

For the compound `Cc1cc(N2CCN(C(=O)c3ccc(F)cc3)CC2)nc(-c2cccc(F)c2)n1`, the “% Inhibition” value is reported as 1% and the Z score is -0.13.

On to `CCCOc1ccc(-c2ccc(C(=O)N[C@H]3CCNC3=O)cc2)cc1CO`, for which the “% Inhibition” value is recorded as -7% and the Z score is 1.45.

On to `C[C@@H](c1ccccc1)N1c2nonc2C(N)=C(N)c2nonc21`, for which the “% Inhibition” value is -7% and the Z score is recorded as 0.78.

For the origin of these results see ChEMBL document CHEMBL4888484, “Replenishing the malaria drug discovery pipeline: Screening and hit evaluation of the MMV Hit Generation Library 1 (HGL1) against asexual blood stage Plasmodium falciparum ,using a nano luciferase reporter read-out” (2022).
